Patent publication US20220411483A1 (Chugai, published 2022)

T1: FcγRIIa H type extracellular domain, His tag (human, UniProt P12318 34-217)
T1 construct: extracellular domain; also called FcgRIIaH
T1 sequence (looked up): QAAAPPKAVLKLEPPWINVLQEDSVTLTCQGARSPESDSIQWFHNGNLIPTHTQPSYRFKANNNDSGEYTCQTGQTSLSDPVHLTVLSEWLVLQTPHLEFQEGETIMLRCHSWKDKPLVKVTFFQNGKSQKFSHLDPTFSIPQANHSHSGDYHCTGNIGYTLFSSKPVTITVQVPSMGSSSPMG

T2: FcγRIIa R type extracellular domain, His tag (human, UniProt P12318 34-217)
T2 construct: extracellular domain; also called FcgRIIaR
T2 sequence (looked up): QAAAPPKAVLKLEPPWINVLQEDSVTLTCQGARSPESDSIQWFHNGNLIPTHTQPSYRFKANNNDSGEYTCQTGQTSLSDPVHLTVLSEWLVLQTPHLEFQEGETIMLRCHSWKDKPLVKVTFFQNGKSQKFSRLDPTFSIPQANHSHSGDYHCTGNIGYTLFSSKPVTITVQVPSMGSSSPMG

T3: FcγRIIb extracellular domain, His tag (human, UniProt P31994 43-217)
T3 construct: extracellular domain; also called FcgRIIb
T3 sequence (looked up): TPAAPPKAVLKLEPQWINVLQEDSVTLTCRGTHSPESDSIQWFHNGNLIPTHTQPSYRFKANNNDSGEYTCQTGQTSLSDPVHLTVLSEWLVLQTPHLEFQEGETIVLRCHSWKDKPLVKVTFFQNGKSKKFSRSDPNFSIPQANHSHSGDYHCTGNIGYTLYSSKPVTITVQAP


Legend:
[1] = target: T1, FcγRIIa H type extracellular domain, …; experiment: SPR, KD ratio
[2] = target: T2, FcγRIIa R type extracellular domain, …; experiment: SPR, KD ratio
[3] = target: T3, FcγRIIb extracellular domain, His tag; experiment: SPR, KD ratio
[4] = target: T4, FcγRIIIa V type extracellular domain, His tag (human, UniProt P08637 fragment); experiment: SPR, KD ratio
T4 construct: extracellular domain; also called FcgRIIIaV
T4 sequence (P08637 17-208 F176V): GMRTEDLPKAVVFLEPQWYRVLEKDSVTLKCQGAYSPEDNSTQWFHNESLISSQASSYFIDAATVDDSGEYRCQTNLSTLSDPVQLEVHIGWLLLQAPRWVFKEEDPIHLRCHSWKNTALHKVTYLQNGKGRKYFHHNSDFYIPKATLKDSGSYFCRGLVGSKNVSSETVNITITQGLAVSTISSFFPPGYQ

[5] = target: T5, FcγRIa extracellular domain, His tag (human, UniProt P12314 16-292); experiment: SPR, KD ratio
T5 construct: whole entry named; also called FcgRIa

[6] = target: T3, FcγRIIb extracellular domain, His tag; experiment: SPR kinetics, antibody captured
[7] = target: T5, FcγRIa extracellular domain, His tag; experiment: SPR kinetics, antibody captured
T5 sequence (P12314 16-292): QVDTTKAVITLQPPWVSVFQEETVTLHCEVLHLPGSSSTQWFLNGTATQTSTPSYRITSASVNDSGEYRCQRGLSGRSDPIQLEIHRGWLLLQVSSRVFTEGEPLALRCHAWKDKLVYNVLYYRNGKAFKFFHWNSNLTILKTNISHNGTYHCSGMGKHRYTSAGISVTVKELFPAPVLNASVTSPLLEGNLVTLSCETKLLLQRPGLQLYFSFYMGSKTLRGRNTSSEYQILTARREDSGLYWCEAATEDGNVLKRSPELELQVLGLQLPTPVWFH

[8] = target: T2, FcγRIIa R type extracellular domain, …; experiment: SPR, bound amount per captured antibody
[9] = target: T3, FcγRIIb extracellular domain, His tag; experiment: SPR, bound amount per captured antibody

Row | Binder | Relative FcgRIIaH-binding Activity [1] | Relative FcgRIIaR-binding Activity [2] | Relative FcgRIIb-binding Activity [3] | Relative FcgRIIIaV-binding Activity [4] | Relative FcgRIa-binding Activity [5] | Kd [6] [nM] | Kd [7] [nM] | Relative FcgRIIaR-binding Activity [8] | Relative FcgRIIb-binding Activity [9]
1 | IL6R-P590/IL6R-L (antibody, human IgG1, kappa) heavy: QVQLQESGPGLVKPSETLSLTCAVSGHSISHDHAWSWVRQPPGEGLEWIGFISYSGITNYNPSLQGRVTISRDNSKNTLYLQMNSLRAEDTAVYYCARSLARTTAMDYWGEGTLVTVSS[human IgG1 constant region with P238D F241M (EU numbers) not shown] light: DIQMTQSPSSLSASVGDRVTITCRASQDISSYLNWYQQKPGKAPKLLIYYTSRLHSGVPSRFSGSGSGTDFTFTISSLQPEDIATYYCQQGNTLPYTFGQGTKVEIKRTVAAPSVFIFPPSDEQLKSGTASVVCLLNNFYPREAKVQWKVDNALQSGNSQESVTEQDSKDSTYSLSSTLTLSKADYEKHKVYACEVTHQGLSSPVTKSFNRGEC | 0.011 fold of IL6R-G1d/IL6R-L | 0.034 fold of IL6R-G1d/IL6R-L | 1.84 fold of IL6R-G1d/IL6R-L | 0.005 fold of IL6R-G1d/IL6R-L | 0.0194 fold of IL6R-G1d/IL6R-L | 2800 | 17 | 20.6 % of IL6R-G1d/IL6R-L | 126 % of IL6R-G1d/IL6R-L
2 | IL6R-P722/IL6R-L (antibody, human IgG1, kappa) heavy: QVQLQESGPGLVKPSETLSLTCAVSGHSISHDHAWSWVRQPPGEGLEWIGFISYSGITNYNPSLQGRVTISRDNSKNTLYLQMNSLRAEDTAVYYCARSLARTTAMDYWGEGTLVTVSS[human IgG1 constant region with P238D A330Y (EU numbers) not shown] light: DIQMTQSPSSLSASVGDRVTITCRASQDISSYLNWYQQKPGKAPKLLIYYTSRLHSGVPSRFSGSGSGTDFTFTISSLQPEDIATYYCQQGNTLPYTFGQGTKVEIKRTVAAPSVFIFPPSDEQLKSGTASVVCLLNNFYPREAKVQWKVDNALQSGNSQESVTEQDSKDSTYSLSSTLTLSKADYEKHKVYACEVTHQGLSSPVTKSFNRGEC | 0.01 fold of IL6R-G1d/IL6R-L | 0.041 fold of IL6R-G1d/IL6R-L | 1.76 fold of IL6R-G1d/IL6R-L | 0.007 fold of IL6R-G1d/IL6R-L | 0.0236 fold of IL6R-G1d/IL6R-L | 2900 | 14 | 22.5 % of IL6R-G1d/IL6R-L | 130 % of IL6R-G1d/IL6R-L
3 | IL6R-P594/IL6R-L (antibody, human IgG1, kappa) heavy: QVQLQESGPGLVKPSETLSLTCAVSGHSISHDHAWSWVRQPPGEGLEWIGFISYSGITNYNPSLQGRVTISRDNSKNTLYLQMNSLRAEDTAVYYCARSLARTTAMDYWGEGTLVTVSS[human IgG1 constant region with P238D F241L (EU numbers) not shown] light: DIQMTQSPSSLSASVGDRVTITCRASQDISSYLNWYQQKPGKAPKLLIYYTSRLHSGVPSRFSGSGSGTDFTFTISSLQPEDIATYYCQQGNTLPYTFGQGTKVEIKRTVAAPSVFIFPPSDEQLKSGTASVVCLLNNFYPREAKVQWKVDNALQSGNSQESVTEQDSKDSTYSLSSTLTLSKADYEKHKVYACEVTHQGLSSPVTKSFNRGEC | 0.009 fold of IL6R-G1d/IL6R-L | 0.032 fold of IL6R-G1d/IL6R-L | 1.77 fold of IL6R-G1d/IL6R-L | 0.005 fold of IL6R-G1d/IL6R-L | 0.0236 fold of IL6R-G1d/IL6R-L | 2900 | 14 | 19.8 % of IL6R-G1d/IL6R-L | 111 % of IL6R-G1d/IL6R-L
4 | IL6R-P721/IL6R-L (antibody, human IgG1, kappa) heavy: QVQLQESGPGLVKPSETLSLTCAVSGHSISHDHAWSWVRQPPGEGLEWIGFISYSGITNYNPSLQGRVTISRDNSKNTLYLQMNSLRAEDTAVYYCARSLARTTAMDYWGEGTLVTVSS[human IgG1 constant region with P238D A330H (EU numbers) not shown] light: DIQMTQSPSSLSASVGDRVTITCRASQDISSYLNWYQQKPGKAPKLLIYYTSRLHSGVPSRFSGSGSGTDFTFTISSLQPEDIATYYCQQGNTLPYTFGQGTKVEIKRTVAAPSVFIFPPSDEQLKSGTASVVCLLNNFYPREAKVQWKVDNALQSGNSQESVTEQDSKDSTYSLSSTLTLSKADYEKHKVYACEVTHQGLSSPVTKSFNRGEC | 0.011 fold of IL6R-G1d/IL6R-L | 0.044 fold of IL6R-G1d/IL6R-L | 2.84 fold of IL6R-G1d/IL6R-L | 0.006 fold of IL6R-G1d/IL6R-L | 0.0183 fold of IL6R-G1d/IL6R-L | 1800 | 18 | 24.1 % of IL6R-G1d/IL6R-L | 140 % of IL6R-G1d/IL6R-L
5 | IL6R-P719/IL6R-L (antibody, human IgG1, kappa) heavy: QVQLQESGPGLVKPSETLSLTCAVSGHSISHDHAWSWVRQPPGEGLEWIGFISYSGITNYNPSLQGRVTISRDNSKNTLYLQMNSLRAEDTAVYYCARSLARTTAMDYWGEGTLVTVSS[human IgG1 constant region with P238D S324N (EU numbers) not shown] light: DIQMTQSPSSLSASVGDRVTITCRASQDISSYLNWYQQKPGKAPKLLIYYTSRLHSGVPSRFSGSGSGTDFTFTISSLQPEDIATYYCQQGNTLPYTFGQGTKVEIKRTVAAPSVFIFPPSDEQLKSGTASVVCLLNNFYPREAKVQWKVDNALQSGNSQESVTEQDSKDSTYSLSSTLTLSKADYEKHKVYACEVTHQGLSSPVTKSFNRGEC | 0.012 fold of IL6R-G1d/IL6R-L | 0.044 fold of IL6R-G1d/IL6R-L | 2.36 fold of IL6R-G1d/IL6R-L | 0.006 fold of IL6R-G1d/IL6R-L | 0.0398 fold of IL6R-G1d/IL6R-L | 2200 | 8.3 | 24 % of IL6R-G1d/IL6R-L | 130 % of IL6R-G1d/IL6R-L
6 | IL6R-P597/IL6R-L (antibody, human IgG1, kappa) heavy: QVQLQESGPGLVKPSETLSLTCAVSGHSISHDHAWSWVRQPPGEGLEWIGFISYSGITNYNPSLQGRVTISRDNSKNTLYLQMNSLRAEDTAVYYCARSLARTTAMDYWGEGTLVTVSS[human IgG1 constant region with P238D Y296H (EU numbers) not shown] light: DIQMTQSPSSLSASVGDRVTITCRASQDISSYLNWYQQKPGKAPKLLIYYTSRLHSGVPSRFSGSGSGTDFTFTISSLQPEDIATYYCQQGNTLPYTFGQGTKVEIKRTVAAPSVFIFPPSDEQLKSGTASVVCLLNNFYPREAKVQWKVDNALQSGNSQESVTEQDSKDSTYSLSSTLTLSKADYEKHKVYACEVTHQGLSSPVTKSFNRGEC | 0.012 fold of IL6R-G1d/IL6R-L | 0.048 fold of IL6R-G1d/IL6R-L | 2.64 fold of IL6R-G1d/IL6R-L | 0.008 fold of IL6R-G1d/IL6R-L | 0.0194 fold of IL6R-G1d/IL6R-L | 2000 | 17 | 27.3 % of IL6R-G1d/IL6R-L | 140 % of IL6R-G1d/IL6R-L
7 | IL6R-P600/IL6R-L (antibody, human IgG1, kappa) heavy: QVQLQESGPGLVKPSETLSLTCAVSGHSISHDHAWSWVRQPPGEGLEWIGFISYSGITNYNPSLQGRVTISRDNSKNTLYLQMNSLRAEDTAVYYCARSLARTTAMDYWGEGTLVTVSS[human IgG1 constant region with P238D S298A (EU numbers) not shown] light: DIQMTQSPSSLSASVGDRVTITCRASQDISSYLNWYQQKPGKAPKLLIYYTSRLHSGVPSRFSGSGSGTDFTFTISSLQPEDIATYYCQQGNTLPYTFGQGTKVEIKRTVAAPSVFIFPPSDEQLKSGTASVVCLLNNFYPREAKVQWKVDNALQSGNSQESVTEQDSKDSTYSLSSTLTLSKADYEKHKVYACEVTHQGLSSPVTKSFNRGEC | 0.007 fold of IL6R-G1d/IL6R-L | 0.026 fold of IL6R-G1d/IL6R-L | 1.16 fold of IL6R-G1d/IL6R-L | 0.006 fold of IL6R-G1d/IL6R-L | 0.0943 fold of IL6R-G1d/IL6R-L | 4400 | 3.5 | 16.5 % of IL6R-G1d/IL6R-L | 112 % of IL6R-G1d/IL6R-L
